# Experimental data from the supplement of paper PMC12217912.
# The other results are listed elsewhere or left out. The full chains were built here from the parent and the listed change. Values near 0.05 are background.
# B1: TEV protease; numbered along this chain (parent)
# chain: MGESLFKGPRDYNPISSSICHLTNESDGHTTSLYGIGFGPFIITNKHLFRRNNGTLVVQSLHGVFKVKDTTTLQQHLVDGRDMIIIRMPKDFPPFPQKLKFREPQREERICLVTTNFQTKSMSSMVSDTSCTFPSGDGIFWKHWIQTKDGQCGSPLVSTRDGFIVGIHSASNFTNTNNYFTSVPKNFMELLTNQEAQQWVSGWRLNADSVLWGGHKVFMVKPEEPFQPVKEATQL
# Variants of: B1
# Assay: raw area under fraction-flipped curve 0-4 h after induction (AUC4h, not background-subtracted), DNA-recorder readout of cleavage of the substrate (dimensionless); higher = more cleavage of the substrate by the protease variant
# Conditions: temperature: 34 °C; time window: 0-4 h after rhamnose induction
# 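Note: Bxb1 expression induced with 0.2% (w/v) L-rhamnose at OD600 near 0.5, cultures sampled hourly, flipped fraction per protease–substrate barcode pair counted by paired-end Illumina sequencing.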
variant,measurement,value
N175P,area with substrate ENLEFQS,0.0616
same,area with substrate ENLGFQS,0.0526
same,area with substrate ENLHFQS,0.0667
same,area with substrate ENLKFQS,0.0697
same,area with substrate ENLMFQS,0.0536
same,area with substrate ENLNFQS,0.0681
same,area with substrate ENLPFQS,0.0365
same,area with substrate ENLSFQS,0.0037
same,area with substrate ENLWFQS,0.0548
N175M,area with substrate ENLDFQS,0.0841
same,area with substrate ENLGFQS,0.0601
same,area with substrate ENLHFQS,0.0632
same,area with substrate ENLKFQS,0.0579
same,area with substrate ENLNFQS,0.0645
same,area with substrate ENLPFQS,0.0632
same,area with substrate ENLRFQS,0.0787
same,area with substrate ENLSFQS,0.0584
P155Y,area with substrate ENLDFQS,0.047
same,area with substrate ENLEFQS,0.0688
same,area with substrate ENLFFQS,0.0441
same,area with substrate ENLIFQS,0.0697
same,area with substrate ENLKFQS,0.0611
same,area with substrate ENLLFQS,0.0673
same,area with substrate ENLNFQS,0.0562
same,area with substrate ENLQFQS,0.0649
same,area with substrate ENLSFQS,0.0438
same,area with substrate ENLVFQS,0.0412
Q151I,area with substrate ENLDFQS,0.0595
same,area with substrate ENLEFQS,0.0543
same,area with substrate ENLFFQS,0.0645
same,area with substrate ENLGFQS,0.0609
same,area with substrate ENLHFQS,0.0684
same,area with substrate ENLIFQS,0.0772
same,area with substrate ENLKFQS,0.0708
same,area with substrate ENLLFQS,0.0716
same,area with substrate ENLNFQS,0.0502
same,area with substrate ENLPFQS,0.0318
same,area with substrate ENLQFQS,0.0827
same,area with substrate ENLRFQS,0.0749
same,area with substrate ENLSFQS,0.0814
same,area with substrate ENLWFQS,0.0566
V183E,area with substrate ENLDFQS,0.0472
same,area with substrate ENLEFQS,0.0323
same,area with substrate ENLHFQS,0.0475
same,area with substrate ENLKFQS,0.051
same,area with substrate ENLNFQS,0.0474
same,area with substrate ENLPFQS,0.0541
same,area with substrate ENLRFQS,0.0525
same,area with substrate ENLSFQS,0.0615
V183Y,area with substrate ENLDFQS,0.0528
same,area with substrate ENLFFQS,0.116
same,area with substrate ENLHFQS,0.0573
same,area with substrate ENLLFQS,0.0548
same,area with substrate ENLMFQS,0.0714
same,area with substrate ENLNFQS,0.0543
same,area with substrate ENLPFQS,0.0511
same,area with substrate ENLQFQS,0.0635
same,area with substrate ENLRFQS,0.0526
same,area with substrate ENLSFQS,0.0429
same,area with substrate ENLWFQS,0.0671
G37N,area with substrate ENLFFQS,0.044
same,area with substrate ENLIFQS,0.0732
same,area with substrate ENLLFQS,0.054
same,area with substrate ENLNFQS,0.0633
same,area with substrate ENLSFQS,0.0622
same,area with substrate ENLTFQS,0.0726
same,area with substrate ENLVFQS,0.0671
D79I,area with substrate ENLFFQS,0.0838
same,area with substrate ENLGFQS,0.0593
same,area with substrate ENLPFQS,0.0475
same,area with substrate ENLSFQS,0.0565
S135Y,area with substrate ENLDFQS,0.0535
same,area with substrate ENLEFQS,0.0612
same,area with substrate ENLFFQS,0.0651
same,area with substrate ENLHFQS,0.0579
same,area with substrate ENLIFQS,0.0559
same,area with substrate ENLKFQS,0.0691
same,area with substrate ENLLFQS,0.122
same,area with substrate ENLNFQS,0.0653
same,area with substrate ENLQFQS,0.0603
same,area with substrate ENLRFQS,0.0778
same,area with substrate ENLSFQS,0.0548
same,area with substrate ENLTFQS,0.0577
same,area with substrate ENLVFQS,0.0654
same,area with substrate ENLWFQS,0.0766
C20G,area with substrate ENLEFQS,0.0466
same,area with substrate ENLGFQS,0.0611
same,area with substrate ENLKFQS,0.0687
same,area with substrate ENLLFQS,0.066
same,area with substrate ENLRFQS,0.0484
Y34Q,area with substrate ENLFFQS,0.0674
same,area with substrate ENLIFQS,0.0766
same,area with substrate ENLQFQS,0.0326
F173L,area with substrate ENLDFQS,0.0593
same,area with substrate ENLEFQS,0.0498
same,area with substrate ENLFFQS,0.0824
same,area with substrate ENLIFQS,0.0737
same,area with substrate ENLKFQS,0.0794
same,area with substrate ENLLFQS,0.0767
same,area with substrate ENLNFQS,0.0756
same,area with substrate ENLPFQS,0.0676
same,area with substrate ENLQFQS,0.0607
same,area with substrate ENLSFQS,0.0536
same,area with substrate ENLWFQS,0.0718
F95V,area with substrate ENLEFQS,0.0618
same,area with substrate ENLFFQS,0.0651
same,area with substrate ENLGFQS,0.0253
same,area with substrate ENLHFQS,0.0991
same,area with substrate ENLIFQS,0.0865
same,area with substrate ENLKFQS,0.0641
same,area with substrate ENLMFQS,0.0712
same,area with substrate ENLNFQS,0.0555
same,area with substrate ENLPFQS,0.0567
same,area with substrate ENLQFQS,0.0599
same,area with substrate ENLRFQS,0.0571
same,area with substrate ENLSFQS,0.0644
S154G,area with substrate ENLDFQS,0.069
same,area with substrate ENLFFQS,0.0716
same,area with substrate ENLHFQS,0.06
same,area with substrate ENLKFQS,0.0818
same,area with substrate ENLNFQS,0.068
same,area with substrate ENLPFQS,0.041
same,area with substrate ENLRFQS,0.0935
same,area with substrate ENLSFQS,0.0646
same,area with substrate ENLTFQS,0.0841
same,area with substrate ENLVFQS,0.0909
same,area with substrate ENLWFQS,0.0995
Q194E,area with substrate ENLDFQS,0.0594
same,area with substrate ENLGFQS,0.0693
same,area with substrate ENLHFQS,0.0927
same,area with substrate ENLIFQS,0.0888
same,area with substrate ENLKFQS,0.0774
same,area with substrate ENLLFQS,0.0767
same,area with substrate ENLNFQS,0.0497
same,area with substrate ENLPFQS,0.0539
same,area with substrate ENLQFQS,0.0389
same,area with substrate ENLRFQS,0.0955
same,area with substrate ENLSFQS,0.0722
same,area with substrate ENLWFQS,0.0563
K148I,area with substrate ENLDFQS,0.0789
same,area with substrate ENLEFQS,0.0628
same,area with substrate ENLFFQS,0.0933
same,area with substrate ENLHFQS,0.0852
same,area with substrate ENLIFQS,0.0706
same,area with substrate ENLKFQS,0.0553
same,area with substrate ENLLFQS,0.0771
same,area with substrate ENLNFQS,0.0665
same,area with substrate ENLPFQS,0.0508
same,area with substrate ENLQFQS,0.0717
same,area with substrate ENLRFQS,0.0786
same,area with substrate ENLWFQS,0.0752
K148P,area with substrate ENLEFQS,0.0763
same,area with substrate ENLFFQS,0.0655
same,area with substrate ENLHFQS,0.0526
same,area with substrate ENLKFQS,0.0749
same,area with substrate ENLMFQS,0.0576
same,area with substrate ENLNFQS,0.065
same,area with substrate ENLPFQS,0.0616
same,area with substrate ENLRFQS,0.0708
same,area with substrate ENLSFQS,0.0546
same,area with substrate ENLWFQS,0.0673
K148F,area with substrate ENLDFQS,0.0731
same,area with substrate ENLEFQS,0.0683
same,area with substrate ENLFFQS,0.0745
same,area with substrate ENLKFQS,0.0752
same,area with substrate ENLRFQS,0.0665
same,area with substrate ENLSFQS,0.0712
Q234H,area with substrate ENLDFQS,0.0437
same,area with substrate ENLEFQS,0.0523
same,area with substrate ENLFFQS,0.0803
same,area with substrate ENLGFQS,0.0685
same,area with substrate ENLIFQS,0.0701
same,area with substrate ENLKFQS,0.0778
same,area with substrate ENLLFQS,0.0603
same,area with substrate ENLNFQS,0.0558
same,area with substrate ENLPFQS,0.0371
same,area with substrate ENLQFQS,0.0809
same,area with substrate ENLRFQS,0.0712
same,area with substrate ENLWFQS,0.0701
